Assay results reported in PubChem BioAssay AID686971 (National Center for Advancing Translational Sciences (NCATS), 2013).
Out of some 360,000 compounds screened, about 7,500 (2.1%) were called active. Inconclusive results, whose numbers are uncertain, are shown with a selection of clear calls. Calls come from the whole dose curve; as a rule, active = well fitted cell-killing curve with a large enough effect; inconclusive = small, poorly fitted or top-dose-only effect, or effect the other way, or another doubt; inactive = no such curve, though single readings can be large or run the other way. No potency is given beside an inconclusive call; the fits are too rough.

Assay: qHTS for induction of synthetic lethality in tumor cells producing 2HG: qHTS for the HT-1080-IDH1KD cell line;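 for activity, negative = toxicity: 0% = DMSO wells and -100% = cell-free medium wells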
Details: HT-1080 IDH1 knockdown viability, ATP luminescence, 48 h; activity, negative = toxicity: at 46.1 µM (top of the series) unless noted
Procedure, shortened: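 Luminescent ATP read-out (CellTiter-Glo, 10 min at room temperature) after 48 h compound exposure at 37 °C gave viability of IDH1-knockdown HT-1080 cells. Activity was normalised to DMSO and cell-free wells, then fitted as concentration-response curves.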
Potency is the fitted concentration of half-maximal effect; tags give direction and shape of the fitted curve.

Compound	Potency	activity, negative = toxicity
O=[N+]([O-])c1ncccc1OCc1ccc(Cl)c(Cl)c1	inactive	
CN1C(=O)[C@H]2[C@@H](c3ccc(C(F)(F)F)cc3)N[C@]3(CCCN(CC4CCCCC4)C3=O)[C@H]2C1=O	inactive	
COc1ccc(/C=N/Nc2cc(C)nc3ccc(OC)cc23)c(OC)c1	active: 5.17 µM	
O=C(Nc1c(-c2ccc3c(c2)OCO3)[nH][nH]c1=O)c1cccc(C(F)(F)F)c1	inactive	
O=C(c1ccc(CNS(=O)(=O)c2ccccc2)cc1)N1CCN(Cc2ccccc2)CC1	inconclusive [cytotoxic, single point]	
CCCCOc1ccc(C(=O)NNC(=O)c2cnccn2)cc1OC	inconclusive [cytotoxic, single point]	
O=C(CN(Cc1cccs1)C(=O)CCC(=O)Nc1ccccn1)NCc1ccccc1	inconclusive [rising, partial curve]	
CCCCOC(=O)/C(=C/c1cn(C)c2ccccc12)NC(=O)c1ccc(OC)cc1	inactive	
CC(=O)c1ccc(S(=O)(=O)N2CCN(C(=O)c3cccc(S(=O)(=O)N4CC(C)OC(C)C4)c3)CC2)cc1 (configuration not stated)	inactive	
COc1ccc(CC2c3cc(OC)c(OC)cc3CC[N+]2(C)CCC(=O)OCCCCCOC(=O)CC[N+]2(C)CCc3cc(OC)c(OC)cc3C2Cc2ccc(OC)c(OC)c2)cc1OC (configuration not stated)	active: 20.6 µM	
CCCCc1c(Cc2ccccc2)ncn1CCc1ccccc1OC	active: 18.4 µM	
Cc1cccc(N(C)C(=O)c2cc3cc4ccc(C)cc4nc3o2)c1	active: 13 µM	
COc1ccc(NC(C#N)c2ccccc2OCc2ccccc2)cc1 (configuration not stated)	inconclusive [cytotoxic, partial curve, poor fit]	
FC(F)(F)c1ccccc1NC(=S)N1CCc2ccccc2C1	inconclusive [cytotoxic, single point]	
COc1ccc(/C=C/c2nc(-c3ccccc3O)n[nH]2)cc1	inconclusive [cytotoxic, single point]	
Cc1cccc(COc2ccc(S(=O)(=O)N3CCOCC3)cc2[N+](=O)[O-])c1	inactive	
CN1C2C=CC(=O)C1C1C(=O)N(c3ccccc3)C(=O)C12 (configuration not stated)	inconclusive [cytotoxic, single point]	
Cc1ccnc(NS(=O)(=O)c2ccc(NC(=O)c3ccc([N+](=O)[O-])s3)cc2)n1	inconclusive [cytotoxic, single point]	
CC1CCN(c2nc3ccc(C(=O)NCCCN4CCCCC4)cc3s2)CC1	inconclusive [cytotoxic, single point]	
CC(/C=N\NC(=O)Cn1c(C)nc2ccccc21)=C\c1ccccc1	active: 20.6 µM	
O=C(c1cc(Cl)cc(Cl)c1)N1CCC(=O)N([C@H](COCc2ccccc2)Cc2ccccc2)CC1	inconclusive [cytotoxic, single point]	
Cc1ccc(NC(=O)COc2cccnc2[N+](=O)[O-])cc1S(=O)(=O)N1CCCCC1	inactive	
Cc1cccc(N2CCN(CC3CCCCC3)CC2)c1C	inactive	
COc1cc(OC)c(N(C)S(=O)(=O)c2cccc(C(=O)NC3=NCCS3)c2)cc1Cl	active: 16.4 µM	

Compound	Potency	activity, negative = toxicity
C#CCNC(=O)C1CCN(c2cc(C)nc(-c3ccccc3)n2)CC1	inactive	
O=[N+]([O-])c1ccccc1N=Nc1c(O)[nH]c2ccc(F)cc12	inactive	
CC1(C(=O)N2CCC(CC3CC(c4cccc(Br)c4)=NO3)(C(=O)NCC3CCCCC3)CC2)CC1 (configuration not stated)	inconclusive [cytotoxic, single point]	
OCCCNc1nc(-c2ccc(Br)cc2)nnc1-c1ccc(Cl)cc1	inconclusive [cytotoxic, single point]	
S=C(NC1CCCC1)N1CCN(c2cccc(Cl)c2)CC1	inactive	
Cc1ccc(-c2ccc(CN3C(C(C)C)C(=O)N(Cc4cn(Cc5ccco5)nn4)CCS3(=O)=O)cc2)cc1 (configuration not stated)	inconclusive [cytotoxic, single point]	
COc1ccc(CCNC(=O)CNCCc2ccc(F)cc2)cc1	inactive	
CC(=O)c1cccc(-c2ccnc3c2CC(C(=O)Nc2cccc(N(C)C)c2)O3)c1 (configuration not stated)	inconclusive [cytotoxic, partial curve]	
CCOC(=O)C1CCN(c2ncnc3c2nnn3Cc2ccccc2Cl)CC1	inactive	
CC(Sc1nc(N)cc(=O)[nH]1)C(=O)Nc1nc2c(s1)CCCC2 (configuration not stated)	inactive	
C=CCn1c(CNC(=O)c2cccs2)nnc1SCC(=O)c1ccc(Br)cc1	inconclusive [cytotoxic, single point]	
COc1cccc(NC(=O)CN(C)C(=O)c2cc(S(=O)(=O)Nc3ccccc3OC)ccc2C)c1	inactive	
COc1ccccc1NC(=O)CN(Cc1ccco1)C(=O)c1ccc(N2CCCC2=O)cc1	inactive	
COc1ccc(C(CNC(=O)c2ccc(S(=O)(=O)Nc3ccc(F)cc3)cc2)N(C)C)cc1 (configuration not stated)	inconclusive [cytotoxic, partial curve]	
O=C(NCCc1csc(-c2cccnc2)n1)c1ccccc1Br	inactive	
CN(C)c1cc[n+](CC(=O)Nc2ccc(Cl)c([N+](=O)[O-])c2)cc1	inconclusive [cytotoxic, partial curve]	
CCN(CC)CCCNC(=O)c1cc(Cl)c(NC(=O)C2=C(C)OCCS2)cc1OC	inconclusive [cytotoxic, single point]	
CCCCNC(=O)c1[nH]c(C)c(C(C)=O)c1C	inactive	
O=C(Cc1ccccc1)Nc1ccc(NC(=O)c2cccs2)cc1	inconclusive [cytotoxic, single point]	
CCC(C)(C)NC(=O)C(c1ccc(F)cc1)N(Cc1ccco1)C(=O)c1snc(C(N)=O)c1N (configuration not stated)	inconclusive [cytotoxic, single point]	
COc1ccc(C(=O)Nc2c(O)ccc3ccccc23)cc1OC		inconclusive: -21.4% [cytotoxic]
COc1ccc(Cl)cc1NC(=O)CCNC(=O)OCc1ccccc1	inactive	
CC(C)C(NC(=O)Cc1ccccc1)C(=O)N1CCN(c2cccc(Cl)c2)CC1 (configuration not stated)	inactive	
